We go through 1 molecule from patent US20250163168A1, “NOVEL ANTIBODIES AND ANTIBODY CONJUGATES FOR THE TREATMENT OF METABOLIC DISORDERS” (PFIZER INC., priority 2023, published 2025).

Assay [1] deals with human GIPR (hGIPR), full length (human) (UniProt P48546). The assay can be described thus: cell-based or functional assay.
In assay [2] the target is T1, Human GIPR ECD (GIPR extra cellular domain) (human).
T1 sequence: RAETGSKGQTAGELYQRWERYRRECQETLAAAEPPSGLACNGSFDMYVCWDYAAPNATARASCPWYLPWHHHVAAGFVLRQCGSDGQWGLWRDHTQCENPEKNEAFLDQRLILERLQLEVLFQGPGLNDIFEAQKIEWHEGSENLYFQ
The assay can be described thus: SPR (Biacore 8K, 37 C); antibody captured on anti-human IgG, human GIPR ECD as analyte; 1:1 model.

B1: benchmark antibody 2G10, the fully human monoclonal anti-GIPR antagonist antibody portion of AMG 133 (maridebart cafraglutide) (antibody, INN chains, looked up, V domains shown)
VH: QVQLVESGGGVVQPGRSLRLSCAASGFTFSNYGMHWVRQAPGEGLEWVAAIWFDASDKYYAD[about 20 residues left out]MNSLRAEDTAVYYCARDQAIFGVVPDYWGQGTLVTVSS
VL: EIVMTQSPATLSVSPGERATLSCRASQSVSSNLAWYQQKPGQAPRLLIYGAATRATGIPARVSGSGSGTEFTLTISSLQSEDFAVYYCQQYNNWPLTFGGGTKVEIK
One may read the Kd as the equilibrium constant for the complex coming apart. For B1, in assay [1], the Human GIPR-CHO cAMP Antagonist Activity IC50 is 30.4 nM. The same molecule had a Kd in assay [2] of 19.2 nM.
